Hit rate of the full screen: of about 110,000 compounds, about 230 (0.21%) showed an effect of 50% or more. The list shows a part of the results.
molecular target: DPAP1 (Plasmodium falciparum, UniProt Q8IIJ9); assay: primary screen, percent inhibition; read by cleavage of a fluorogenic dipeptide substrate; higher = more effect of the substance; parameters: species or system P. falciparum D10 trophozoite lysates; single well
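Further: 30 min substrate incubation versus DMSO and 10 µM JCP410 controls.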

DPAP1, sequence (Q8IIJ9 whole entry, looked up): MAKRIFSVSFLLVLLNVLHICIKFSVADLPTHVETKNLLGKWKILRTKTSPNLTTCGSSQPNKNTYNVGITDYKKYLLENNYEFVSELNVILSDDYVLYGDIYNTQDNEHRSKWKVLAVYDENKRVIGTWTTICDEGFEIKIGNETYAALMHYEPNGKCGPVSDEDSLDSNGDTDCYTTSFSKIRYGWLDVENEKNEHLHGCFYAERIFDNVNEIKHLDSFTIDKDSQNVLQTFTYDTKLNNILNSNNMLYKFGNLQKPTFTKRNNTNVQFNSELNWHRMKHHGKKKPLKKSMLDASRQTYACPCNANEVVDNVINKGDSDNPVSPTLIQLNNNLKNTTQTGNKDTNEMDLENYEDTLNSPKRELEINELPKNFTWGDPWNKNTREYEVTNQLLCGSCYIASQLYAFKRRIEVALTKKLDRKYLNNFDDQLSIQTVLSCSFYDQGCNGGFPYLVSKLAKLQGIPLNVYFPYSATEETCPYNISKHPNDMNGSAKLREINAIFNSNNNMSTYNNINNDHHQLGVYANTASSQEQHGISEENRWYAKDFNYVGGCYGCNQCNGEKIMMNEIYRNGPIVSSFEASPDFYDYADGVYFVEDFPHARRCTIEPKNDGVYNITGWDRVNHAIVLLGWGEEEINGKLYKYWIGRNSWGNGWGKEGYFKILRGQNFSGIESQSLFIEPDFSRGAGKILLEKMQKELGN

| SMILES | % Inhibition @ 10 uM [%] |
| --- | --- |
| CCOC(=O)c1sc(NC(=O)c2cc(-c3ccc(OC)cc3)on2)c(C(=O)OCC)c1C | 0.723 |
| COc1ccc(-c2nc(SCC(=O)NCC3CCCO3)c(-c3ccc(F)cc3)[nH]2)cc1OC (centres unmarked) | -0.0521 |
| Cc1ccc(C2(c3ccc(C)cc3)CC2C(=O)Nc2ccc([N+](=O)[O-])cc2)cc1 (centres unmarked) | -0.0217 |
| O=C(Nc1ccccc1Cl)C1CC(=O)N(c2ccccc2F)C1 (centres unmarked) | -10.4 |
| CCC(C(=O)Nc1nnc(Cc2ccccc2F)s1)c1ccccc1 (centres unmarked) | -3.78 |
| O=C(c1cccs1)N1CCC(Cc2ccccc2)CC1 | -6.07 |
| COc1ccc(-c2nc(CNS(=O)(=O)c3cc(OC)ccc3OC)cs2)cc1 | -6.09 |
| Cc1oc(-c2ccc(C(=O)N3CCC(C(N)=O)CC3)cc2)nc1COc1ccccc1 | 3.8 |
| COc1ccc(OC)c(C2C3=C(O)CCCC3=Nc3ccc4nc(C)ccc4c32)c1 (centres unmarked) | 5.48 |
| CCCn1c2c(c(O)c(C(=O)Nc3ncccc3C)c1=O)CCCC2 | -0.458 |
| COc1ccc(S(=O)(=O)c2cnc3ccc(OC)cc3c2N2CCCCC2)cc1 | 1.47 |
| CCc1nn(CC(=O)NCCc2cccs2)c(=O)c2cc3ccccc3n12 | -5.37 |
| Cc1c(C#N)c(O)nc(O)c1/C=N/c1ccc(S(=O)(=O)N(C)C)cc1 | 2.67 |
| CCc1cccc(NC(=O)c2ccc(C)o2)c1 | -1.63 |
| O=S(=O)(Nc1cccc(-c2cn3cccnc3n2)c1)c1ccccc1 | -3.26 |
| Cc1ccc(-c2noc(CN(C)S(=O)(=O)c3c(C)cc(C)cc3C)n2)cc1 | 4 |
| COc1ccc(-c2cc(C(=O)NC3CC3)[nH]n2)cc1 | -1.3 |
| CN(CCC#N)C(=O)COc1ccc2c(c1)C(=O)CC(C)(C)O2 | -3.12 |
| CC(C)CC(C(=O)NCC#N)c1cccc(-c2ccc(S(=O)(=O)NCCCN3CCOCC3)cc2)c1 (centres unmarked) | -1.41 |
| COC(=O)c1cc2ccsc2n1Cc1ccc(C)cc1 | -3.67 |
| O=C1c2cccc3cccc(c23)C(=O)N1CCN1CCOCC1 | -1.29 |
| CC(C)n1c(CN2CCOCC2)nc2c1c(=O)n(C)c(=O)n2C | -1.11 |
| COc1ccc(N(CC(=O)N2CCN(Cc3ccccc3)CC2)S(C)(=O)=O)cc1 | -9.45 |
| Cc1c(C)n(Cc2ccc(F)cc2)c2ccc(C(=O)NCCc3ccco3)cc12 | -3.76 |
| CC(CCc1ccccc1)NC(=O)CN(C)c1nnc(N2CCCC2=O)s1 (centres unmarked) | 1.31 |

| SMILES | % Inhibition @ 10 uM [%] |
| --- | --- |
| CCc1cccc(NC2CC(=O)N(c3ccccc3)C2=O)c1 (centres unmarked) | 3.17 |
| CCN(CC)CCCNC(=O)Cn1cc2c(n1)CCC(C)C2 (centres unmarked) | 0.137 |
| CCO/C(O)=C1\C(C)=Nc2nc(C)nn2C1c1cc(OC)ccc1OC (centres unmarked) | -3.41 |
| CC1CCCC(N(C)CCN(C)C)C1 (centres unmarked) | -3.6 |
| O=C(Nc1ccc(Cl)c(Cl)c1)C12CC3CC(CC(C3)C1)C2 | 3.1 |
| CCCS(=O)(=O)N1N=C(c2ccc(C)cc2)CC1c1ccco1 (centres unmarked) | 1.05 |
| O=C(NC12CC3CC(CC(C3)C1)C2)c1ccc2c(c1)OCO2 | -1.44 |
| COC(=O)c1c(NC(=O)c2ccccc2Br)sc(C)c1C | 18.5 |
| COc1ccc(C2=N/C(=C\C(C)=C\c3ccccc3)C(=O)O2)c(Cl)c1 | 6.1 |
| CS(=O)(=O)c1ccc(N2CCC(c3ccc(Cl)cc3)=N2)cc1 | 9.71 |
| CC1=C(C(=O)Nc2ccccn2)C(c2cccc(Br)c2)n2ncnc2N1 (centres unmarked) | -1.57 |
| COc1ccc(C2=N/C(=C\C=C\c3ccccc3)C(=O)O2)cc1OC | 1.25 |
| O=S(=O)(c1ccc(F)cc1)N1CCN=C1c1ccccc1 | 5.49 |
| CCCOc1ccc(C2C(C(=O)OCC)=CN(Cc3ccc(OC)cc3)C=C2C(=O)OCC)cc1 | 0.00995 |
| CN(C)Cc1c[nH]c2cc([N+](=O)[O-])ccc12 | -1.45 |
| C=CCOc1ccc(-c2nc(O)c3c(n2)Oc2c(cccc2OC)C3)cc1 | 6.98 |
| O=C(c1scc2c1CCCC2)N1CCN(c2ccc(F)cc2)CC1 | -0.463 |
| COc1ccc(OC)c(C(=O)c2ccc(C(=O)NC(C)(C)C)cc2)c1 | 0.605 |
| COCc1[nH]nc2c1C(c1cccc(Br)c1)C(C#N)=C(N)O2 (centres unmarked) | -5.96 |
| CC1(C)NC(=O)N(CC(O)COc2ccc(F)cc2)C1=O (centres unmarked) | 10.9 |
| CC(O)CNc1ncnc2c1c(-c1ccccc1)cn2-c1ccccc1 (centres unmarked) | 10.8 |
| N#CCNC(=O)C(CSC(N)=O)NC(=O)OCc1ccccc1 (centres unmarked) | 1.71 |
| COc1ccc(C(=O)N/C(=C\c2ccc3c(c2)OCO3)C(=O)NCc2ccccc2)cc1 | -4.49 |
| CCCN(CCO)C1CCN(CCc2ccccc2)CC1 | -2.91 |
| CN(C)c1nc(-c2ccccc2)c(NC(=O)c2ccccc2)c(-c2ccccc2)n1 | -1.56 |

Reference: publication PMC6919601, “Identification of Plasmodium dipeptidyl aminopeptidase allosteric inhibitors by high throughput screening” (PLoS ONE, 2019)
